The chains are these.
B1: LINE1-full (parent)
chain: UACGUAGGUGGUUUUCCCCUGAUAGUGCUAAGGGGGCCUGGAAGUUUGGACUGGGCAGAGCUCAACACAGCGUGGCAAAGUGGCUGUGGCUAGACUGCCUCUCUGGAUUCCUCGUCACUCAGCAGGGCAUCUCUGAGAGAAAUGCC

Read counts are not given, so values of variants with three or more changes are uncertain.

For 19 variants, self-cleavage results are on record in the RNAGym collection of RNA variant scans (doi:10.7554/elife.90254).

The variants in the series derive from B1. Briefly: self-cleavage, relative activity (ratio to wild type); higher = more cleavage; in vitro, sequencing; the parent is a self-cleaving ribozyme.
With UACGUAGGUGGUUUUCCCCUGAUAGUGCAAAGGGGGCCUGGAAGUUUGGACUGGGCAGAGCUCAACACAGCGUGGCAAAGUGGCUGUGGCUAGACUGCCUCUCUGGACUCCUCGUCACUCAGCAGGGCAUCUCUGGGAGAAACGCC [U29A U108C A136G U143C], the self-cleavage was found to be 2.24. The figure for UACGUAGGUGGUUUUCCCCUGAUAGUGCUAAGGGGGCCUGGAAGUUUGGACUGGGCAGAGCUCAACACAGCGUGGCAAAGUGGCUGUGGCUAGACUGCCUCACUGGAUUCCUCGUCUCUCAGCAGGGCAUCUCUGAGAGAAAUGUC [U102A A117U C145U] is 0.9; for UACGUAGGUGGCUUUCCCCUGAUAGUGCUUAGGGGGCCUGGAAGUUUGUACUGGGCAGAGCUCAACACAGCGUGGCGAAGUGGCUGUGGCUAGACUGCCUCUCUGGAUUCCUCGUCACUCAGCAGGGCAUCUCUGAGAGAAAUGCC [U12C A30U G49U A77G] it is 0.89; for UACGUAGGUGGUUUUCCCCUGAUAGUGCUAAGGGGGCCUGGAAGUUUGGACUGGGCAGAGCUCAACACAGCGCGGCAAAGUGGCUGUGGCUAGACUGCCUUUCUGGAUUCCUCGUCACUCUGCAGGGCAUCUCUGAGAGAAAUGCC [U73C C101U A121U] it is 2.3. Consider UACGUAGGUGGUUUUCCCCUGAUAGUGCUAAGGGGGCCUGGAAGUUUGGACCGGGCGUAGCUCAACACAGCGUGGCAAAGUGGCUGUGGCUAGACUGCCUCUCUGGAUUCCUCGUCACUCAGCAGGGCAUCUCUGAGAGAAAUGCC [U52C A57G G58U], for which the self-cleavage was found to be 0.03. The figure for UACGUAGGUGGCUUUCCCCUGAUAGUGCUAAGGGGGCCUGGAAGUUUGGACUGGGCAGGGCUCAACACAGCGUGGCAAAGUGGCUGUGGCUAGACUGCCUCUCUGGAUCCCUCGUCACUCAGCAGGGCAUCUCUGAGAGAAAUGCC [U12C A59G U109C] is 0.18; for UACGUAGGUGGUUUUCCCCAGAUAGUGCUAAGGGGGCCUGGAAGUUUGGACUGGGCAGAGCUCAACACAGCGUGGCAAAGUGGCCGUGGCUAGACUGCCUCUCUGGAUUCCUCGUCACUCAGCAGGGCGUCUCUGAGAGAAAUGCC [U20A U85C A129G] it is 0.

On to UACGUAGGUGGUUUUCCCCUGAUAGAGCUAAGGGGGCCUGGAAGUUUGGACUGGGCAGAGCUCAUCACAGCGUGGCGAAGUGGCUGUGGCUAGACUGCCUCUCUGGAUUCCUCGUCACUCAGCAGGGCAUCUCUGAGAGAAAUGCC [U26A A65U A77G], for which the self-cleavage amounted to 0.21. Under UACGUAGGUGGUUUUCCCCUGAUAGUGCUAAGGGGGCCUGGAAGUUUGGGCUGGGCAGAGCCCAACACAGCGUGGCAAAGAGGCUGUGGCUAGACUGCCUCUCUGGAUUCCUCGUCACUCAGCAGGGCAUCUCUGAGAGAAAUGCC [A50G U62C U81A] stands 0.08; under UACGUAGGUGGUUUUCCCCUGAUAGUGCUAAGGGGGCCUGGAAGUUUGGACUGGGCAGAGCUCAACAUAGCGUGGCAAAGUGGCUGUGGCUAGACUGCCUCUCUGGAUUCCUCGUCACUCAGCAGGGUAUCCCUGAGAGAAAUGCC [C68U C128U U132C], 0.34. Take UACGUAGGUGGUUUUCCCCUGUUAGUGCUAAGGGGGCCUGGAAGUUUGGACUGGGCAGAGCUCAACACAGCGUGGCUAAGUGGCUGUGGCUAGACUGCCUCUCUGGAUUUCUCGUCACUCAGCAGGGCAUCUCUGAGAGAAAUGCC [A22U A77U C110U]: the self-cleavage is 1.35. The figure for UACGUAGGUGGUUUUCCCCUGAUAGUGCUAAGGGGGCCUGGAAGUGUGGACUGGGCUGAGCUCAACACAGCGUGGCAAGGUGGCUGUGGCUAGACUGCCUCUCUGGAUUCCUCGUCACUCAGCAGGGCAUCUCUGAGAGGAAUGCC [U46G A57U A79G A140G] is 0.13; for UACGUAGGAGGUUUUCCCCUGAUAGUGCUAAGGGGGCCUGGAAGUUUGGACUGGGCAGAGCUCGACACAGCGUGGCAAAGUGGCUGUGGCUAGACUGCCUCUCUGGGUUCCUCGUCACUCAGCAGGGCAUCUCUGAGAGAAAUGCC [U9A A64G A107G] it is 0; for UACGUAGGUGGUUUUCCCCUGAUAGUGCUAAGGGGGCCUGGAAGUUUGGACUGGGCAGAGCUCAACACCGCGAGGCAAAGUGGCUGUGGCUAGACUGCCUCUCUGGAUUCCUCGUCACUCGGCGGGGCUUCUCUGAGAGAAAUGCC [A69C U73A A121G A124G A129U] it is 0.21. Consider CACGUAGGUGGUUUUCCCCUGAUAGUGCUAAGGGGGCCUGGAAGUUUGGACUGGGCAGAGCUCAACACAGCGUGGCAAGGUGGCUGUGGCUAGACUGCCUCUCUGGAUUCCUCGUCACUCAGUAGGGCAUCUCUGAGAGAAAUGCC [U1C A79G C123U], for which the self-cleavage was determined as 0.62. Take CACGUAGGCGGUUUUCCCCUGAUAGUGCUAAGGGAGCCUGGAAGUUUGGACUGGGCAGAGCUCAACACAGCGAGGCAAAGUGGCUGUGACUAGACUGCCUCUCUGGAUUCCUCGUCACUCAGCAGGGCAUCUCUGAGAGAAAUGCC [U1C U9C G35A U73A G89A]: the self-cleavage stood at 0.03.

As for UACGUAGGUGGUUUUCCCCUGAUAGUGCUAAGGGGGCCUGGAAGUUUGGACUGGACAGAGCUCAGCACAGCGUGGCAAAGUGGCUGUGGCUAGACUGCCUCACUGGAUUCCUCGUCACUCAGCAGGGCAUCUCUGAGAGAAAUGCC [G55A A65G U102A], the self-cleavage is 0.03. UACGUAGGUGGUUUUCCCCUGAUAGCGCUAGGGGGGCCUGGAAGUUUGGACUGGGCAGAGCUCAACACAGCGUGGCAAAGUGGCUGUGGCUAGACUGCCUCACUGGAUUCCUCGUCACUCAGCAGGGCAUCUCUGAGAGAAAUGCC [U26C A31G U102A]: the self-cleavage worked out at 0.97. As to UACGUAGGUGGUUUUCCCCUGGUAGUGCUAAGGAGGCCUGGAAGUUUGGACUGGGCAGAGCUCAACACAGCGUGGCAAAGUGGCUGUGGCUAGACUGCCUCUCUGGAUUCCUCGUCACUCAGCAGGGCAUCUCCGAGAGAAAUGCC [A22G G34A U134C], the self-cleavage was determined as 1.3.
